Assay results: the supplement of paper PMC10126150
Sequences with one replicate were seen in a single cluster, so their values are uncertain.

The sequences below were run on ATP (assay: switch fluorescence ratio, 500 uM ATP over buffer (Cy3 cluster intensity, sum of 5 cycles each) (fold (ratio)); higher = stronger signal-on switching upon ATP binding; sequences stand for … in TCGTCGGCAGCGTCAGATGTGTATAAGAGACAGTTTTTTTTTTTTTTTTTTTTTTTTT…TC). Conditions: aptamer strand: ATP DNA aptamer (quencher-CACCTGGGGGAGTATTGCGGAGGAAGG + anchor), 100 nM annealed; ATP concentration: 500 uM; one replicate.
Method in brief: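 Clusters with intensities outside 100-1000 RFU were excluded. The remaining Cy3-labelled switching-strand clusters on a modified Illumina MiSeq flow-cell had been annealed to 100 nM quencher-labelled ATP aptamer and imaged in selection buffer, then after 15 min with 500 uM ATP at 22 °C, for five cycles separated by NaOH stripping and re-annealing. The fluorescence ratio, averaged per switch-domain sequence, is each cluster's summed target-cycle Cy3 intensity over its summed buffer-cycle Cy3 intensity.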
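Note: ATP exposure 15 min at 22 °C before imaging.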

Row | Sequence | switch fluorescence ratio
1 | GATCCGTTGG | 1.03
2 | GATCCTTGTT | 0.959
3 | GATCGACGGG | 1.02
4 | GATCGAGGTA | 0.942
5 | GATCGCTTAA | 1.03
6 | GATCGGACGT | 1.02
7 | GATCGGGACG | 1.05
8 | GATCGTAGCG | 0.973
9 | GATCTAACT | 0.992
10 | GATCTAATTT | 1.02
11 | GATCTATGGG | 0.968
12 | GATCTCCGTG | 1.11
13 | GATCTCGCTT | 1
14 | GATCTCTGGG | 0.985
15 | GATCTTAATT | 0.979
16 | GATCTTTTAC | 0.917
17 | GATGAAATCG | 1.03
18 | GATGAACGGA | 1
19 | GATGAACTGT | 0.947
20 | GATGACATTG | 1.12
21 | GATGACGGCC | 1.21
22 | GATGACTGTT | 1.04
23 | GATGAGGGG | 0.965
24 | GATGATACCA | 1.02
25 | GATGATATTA | 1
26 | GATGATTCAG | 0.98

Row | Sequence | switch fluorescence ratio
27 | GATGATTTT | 0.97
28 | GATGCAACTA | 1.18
29 | GATGCAGTCG | 1.01
30 | GATGCCAGGC | 0.987
31 | GATGCCGAGG | 0.978
32 | GATGCCGCCC | 1.16
33 | GATGCGTTCT | 0.967
34 | GATGCTAGCT | 0.932
35 | GATGCTATAT | 1.52
36 | GATGCTGTAA | 1.09
37 | GATGCTTAGA | 0.947
38 | GATGGAAATT | 1.03
39 | GATGGACGCA | 1.1
40 | GATGGACGCC | 1.04
41 | GATGGATCAG | 1.01
42 | GATGGCGCTG | 1.02
43 | GATGGGGTTA | 1.01
44 | GATGGGTGAA | 0.973
45 | GATGGGTTTA | 0.992
46 | GATGGTGAGT | 0.99
47 | GATGTAACCA | 1.12
48 | GATGTAATAA | 1.11
49 | GATGTACCAG | 0.999
50 | GATGTAGTAA | 1.01
51 | GATGTCCCGC | 1.13
52 | GATGTCCGAA | 1.01

Row | Sequence | switch fluorescence ratio
53 | GATGTCTGA | 1.02
54 | GATGTGTGG | 1.01
55 | GATGTTGGTG | 1.04
56 | GATGTTTCTG | 0.994
57 | GATTAAATGG | 1.02
58 | GATTAACACC | 1.11
59 | GATTAAGGGA | 1.01
60 | GATTACTGGG | 1.01
61 | GATTAGAATA | 1
62 | GATTAGACGG | 0.979
63 | GATTAGCCAG | 0.993
64 | GATTAGGAGC | 1.04
65 | GATTATT | 1
66 | GATTCAAATT | 1.01
67 | GATTCAATCC | 0.982
68 | GATTCATCCT | 1.08
69 | GATTCCAGCC | 1.06
70 | GATTCCGCC | 2.37
71 | GATTCGCCTA | 1.02
72 | GATTCGTCAT | 1
73 | GATTCTCTCA | 0.965
74 | GATTCTGCAC | 1.15
75 | GATTCTGTTA | 1.01
76 | GATTGAGACA | 1.04
77 | GATTGATTAA | 1.01
78 | GATTGCAGGG | 0.908

Row | Sequence | switch fluorescence ratio
79 | GATTGCATGT | 0.944
80 | GATTGCTAGG | 1.03
81 | GATTGGAAAC | 1.1
82 | GATTGGCCCT | 1.05
83 | GATTGGCTGA | 0.992
84 | GATTGGTCCG | 1.01
85 | GATTGTAGAC | 0.996
86 | GATTGTCGCG | 0.989
87 | GATTGTGAGG | 1
88 | GATTTACCAT | 1.03
89 | GATTTATAGA | 1.01
90 | GATTTATGGG | 1.01
91 | GATTTCGCAC | 1.35
92 | GATTTTTAAG | 1.02
93 | GATTTTTCTG | 1
94 | GCAAAAACAG | 0.955
95 | GCAAAAAGAT | 1.01
96 | GCAAAAATTG | 1.04
97 | GCAAAAGA | 1.02
98 | GCAAACAAAG | 0.958
99 | GCAAAGATTC | 1.02
100 | GCAAAGGTAA | 0.972
101 | GCAAAGGTAT | 0.968
102 | GCAAAGTTG | 0.981
103 | GCAAATCATT | 0.998
104 | GCAACACTGT | 1.05

Row | Sequence | switch fluorescence ratio
105 | GCAACCTTAG | 1.17
106 | GCAACGAGCG | 1.04
107 | GCAACGCCCG | 1.08
108 | GCAACGCCGG | 1.08
109 | GCAACGGTCA | 1.03
110 | GCAACGTGGC | 1.03
111 | GCAACTAGA | 0.971
112 | GCAAGGGCGA | 1.01
113 | GCAAGTTTAG | 0.988
114 | GCAATAAAAA | 1.04
115 | GCAATAATTG | 1.06
116 | GCAATAGGTG | 1.58
117 | GCAATCAGGG | 1.43
118 | GCAATCCTGA | 1.08
119 | GCAATCTGTT | 1.06
120 | GCAATGATCT | 1.31
121 | GCAATGCGTT | 1.94
122 | GCAATGGAAG | 1.01
123 | GCACAACCT | 1.7
124 | GCACACCTGT | 1.01
125 | GCACAGCCGT | 1.03
126 | GCACAGGGTT | 1.11
127 | GCACATGGGG | 1.11
128 | GCACCACCGG | 1
129 | GCACCCGTGT | 1
130 | GCACCGGGGA | 1.03

Row | Sequence | switch fluorescence ratio
131 | GCACCTAATC | 1.03
132 | GCACGAGGTG | 1.13
133 | GCACGGGATA | 1.05
134 | GCACGGGCCT | 1.02
135 | GCACTAAGAC | 1.13
136 | GCACTCGGGC | 1.05
137 | GCACTGTTCT | 0.995
138 | GCACTTAAGA | 1.03
139 | GCACTTGTTA | 0.965
140 | GCAGAAAACA | 0.972
141 | GCAGAAGGCG | 0.978
142 | GCAGACGAAC | 1.45
143 | GCAGATCAAC | 1.07
144 | GCAGATCCTG | 0.976
145 | GCAGATGTAG | 0.994
146 | GCAGCAGCGA | 1.16
147 | GCAGCATGAT | 1.22
148 | GCAGCATTGG | 1.88
149 | GCAGCCTAAT | 0.998
150 | GCAGCGATGG | 4.26
151 | GCAGCGCACG | 1.04
152 | GCAGGACCG | 1.07
153 | GCAGGATCGT | 0.998
154 | GCAGGCAAAG | 0.993
155 | GCAGGCATCG | 0.974
156 | GCAGGCCAGT | 1.11

Row | Sequence | switch fluorescence ratio
157 | GCAGGGCTCA | 1.04
158 | GCAGGGCTCC | 1.91
159 | GCAGGGGCAG | 1.06
160 | GCAGGGTCGT | 0.94
161 | GCAGGTCCAG | 1.08
162 | GCAGGTGGAT | 1.12
163 | GCAGTCAAAC | 1.28
164 | GCAGTCAGG | 1.02
165 | GCAGTCCGTA | 1.04
166 | GCAGTGGGAT | 0.978
167 | GCAGTGGTTT | 0.985
168 | GCAGTTAAAA | 0.976
169 | GCAGTTTGGG | 1
170 | GCATAAGTA | 1.01
171 | GCATAAGTAG | 0.936
172 | GCATAATGTC | 1.08
173 | GCATACCCGT | 1.06
174 | GCATAGCGTC | 1.02
175 | GCATAGGGTG | 0.988
176 | GCATAGGTTG | 1.03
177 | GCATAGTTGC | 1.03
178 | GCATCATCCT | 1.03
179 | GCATCCGTTA | 1.46
180 | GCATCCTCAA | 1.8
181 | GCATCGAAC | 1
182 | GCATCGGTAC | 1.29

Row | Sequence | switch fluorescence ratio
183 | GCATCTCGGC | 0.989
184 | GCATCTGAGC | 1.02
185 | GCATGAAAGT | 0.945
186 | GCATGAGGGC | 1.09
187 | GCATGCCCGC | 1.01
188 | GCATGGAAAG | 0.946
189 | GCATGGCGTA | 0.984
190 | GCATGTCGTC | 1.01
191 | GCATTAGTCA | 1.04
192 | GCATTCGTCA | 0.939
193 | GCCAAATAGC | 1.01
194 | GCCACCGGA | 0.956
195 | GCCACGACCA | 1.18
196 | GCCACGCACT | 1.56
197 | GCCACGCCG | 1.2
198 | GCCACGGCCG | 1.02
199 | GCCACGTTT | 1.03
200 | GCCACGTTTA | 0.99
201 | GCCACTGGCA | 0.998
